Results: patent publication US20060154902A1, “Shortening of hospital stay and improving survival in patients with chronic kidney disease” (priority 2002, published 2006)

Legend:
[1] = tested on: adult patients, new to hemodialysis; test: Historical cohort of hemodialysis patients: hospitalization outcomes (hospital days per year, hospitalizations per year); assay type: in vivo, human; conditions: for median annual hospitalizations / median days in the hospital per year: historical cohort of 11,340 hemodialysis patients, 35-month period; for median annual hospitalizations: No D group 3; for median days in the hospital per year: No D group 15; for more hospital days per year in the No D group compared to the treated group / more annual hospitalizations in the No D group compared to the treated group: negative binomial regression, FIG. 3 / FIG. 4; for more hospital days per year in the No D group compared to the treated group: p<0.0001; for more annual hospitalizations in the No D group compared to the treated group: p<0.006 (calcitriol), p<0.0001 (paricalcitol)
Description: Vitamin D modulates cell differentiation and proliferation in the cardiovascular and immune system, and in various malignant and pre-malignant tissues. […] Patients entered the cohort at any time. Vitamin D use was defined by the administration of at least doses of a Vitamin D product. Hospitalizations were identified by documented hospitalized absences from the dialysis clinic and were standardized by patient observation period. ANOVA or Chi-Square tests were used to evaluate differences in baseline characteristics. Univariate tests and negative binomial regression models were used to evaluate hospitalization outcomes: hospital days per year and hospitalizations per year. […] There was no difference for baseline phosphorus. […] However, compared to the paricalcitol group, the No D group experienced 30% more annual hospitalizations and 100% more days per year in the hospital (p<0.0001 for both)(as shown in FIG. 4).

[2] = tested on: patients receiving chronic renal replacement therapy; conditions: in vivo

Row | SMILES | median annual hospitalizations [1] | median days in the hospital per year [1] [days per year] | more hospital days per year in the No D group compared to the treated group [1] [%] | more annual hospitalizations in the No D group compared to the treated group [1] [%] | mean serum calcium and phosphorus between calcitriol and paricalcitol patient groups [2] | hospitalizations and days in the hospital compared with the other groups ([1]; paricalcitol vs calcitriol vs No D)
1 | C=C1/C(=C\C=C2/CCC[C@]3(C)[C@@H]([C@H](C)CCCC(C)(C)O)CC[C@@H]23)C[C@@H](O)C[C@@H]1O [calcitriol] | 2 | 11 | 59 | 17 | no significant difference | –
2 | C[C@H](/C=C/[C@H](C)C(C)(C)O)[C@H]1CC[C@H]2/C(=C/C=C3C[C@@H](O)C[C@H](O)C3)CCC[C@]12C [paricalcitol] | 2 | 5 | 100 | 30 | no significant difference | fewest hospitalizations and days in the hospital
